Data as given in a collection of fitness landscapes (doi:10.1016/j.celrep.2020.107928).
Whole data set: some 81,000 sequences, median “one-hybrid fitness for binding NBS DNA” near -0.1, cut for the highest 2% near 0.36. The list shows a part of the results.

B1: Caulobacter ParB omega fusion; a variant is named by its letters at X, in order, B8GW30 (parent)
chain: MESVVVGEPGMSEGRRGLGRGLSALLGEVDAAPAQAPGEQLGGSREAPIEILQRNPDQPRRTFREEDLEDLSNSIREKGVLQPILVRPSPDTAGEYQIVAGERAWRAAQRAGLKTVPIMVRELDDLAVLEIGIIENVQRADLNVLEEALSYKVLMEKFERTQENIAQTIGKSXSHVANXMRLLXLPDEVQSYLVSGELTAXHARAIAAAADPVALAKQIIEGGLSVRETEALARKAPNLSAGKSKGGRPPRVKDTDTQALESDLSSVLGLDVSIDHRGSTGTLTITYATLEQLDDLCNRLTRGI

Variants of: B1
Assay: one-hybrid fitness for binding NBS DNA (the Noc-binding site; scaled: cognate 1, non-cognate 0); higher = stronger binding
Conditions: with NBS DNA site
Outline: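 Fitness is the rescaled log change in variant-to-wild-type read ratio, measured by Illumina sequencing of plasmids before and after bacterial one-hybrid selection. The scale puts cognate at 1 and non-cognate at 0. Selection of Caulobacter ParB libraries, four specificity codons randomised, took place in E. coli USO with a HIS3 reporter, site 19 bp from the promoter, over 48 hours at 37°C on M9-minus-histidine with 0.1 mM IPTG and 5 mM 3-AT.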

Row | Variant | one-hybrid fitness for binding NBS DNA
1 | QSRN | 0.374
2 | GSRK | ≤ 0.2
3 | APDK | ≤ 0.2
4 | KEYD | ≤ 0.2
5 | HCAS | ≤ 0.2
6 | RVKI | ≤ 0.2
7 | ATMI | ≤ 0.2
8 | MVCA | ≤ 0.2
9 | NTET | ≤ 0.2
10 | PARM | ≤ 0.2
11 | HRYG | ≤ 0.2
12 | HDDS | ≤ 0.2
13 | RLNM | ≤ 0.2
14 | VPLG | ≤ 0.2
15 | GQFL | ≤ 0.2
16 | RPTV | ≤ 0.2
17 | RRVM | 0.206
18 | YEKK | ≤ 0.2
19 | TWNS | ≤ 0.2
20 | YVMR | ≤ 0.2
21 | GTKM | ≤ 0.2
22 | ERSF | ≤ 0.2
23 | PRDS | ≤ 0.2
24 | PHQY | ≤ 0.2
25 | YWMS | ≤ 0.2

Row | Variant | one-hybrid fitness for binding NBS DNA
26 | KSTS | ≤ 0.2
27 | ASIW | ≤ 0.2
28 | LATI | ≤ 0.2
29 | IQMR | ≤ 0.2
30 | QSSP | ≤ 0.2
31 | EAPA | ≤ 0.2
32 | MDCF | ≤ 0.2
33 | AAKH | ≤ 0.2
34 | GHAR | ≤ 0.2
35 | WTDR | ≤ 0.2
36 | VLGS | ≤ 0.2
37 | RYTV | ≤ 0.2
38 | TVWR | ≤ 0.2
39 | QLFW | ≤ 0.2
40 | VDTI | ≤ 0.2
41 | PMCT | ≤ 0.2
42 | MPNG | ≤ 0.2
43 | QYML | ≤ 0.2
44 | KKQM | ≤ 0.2
45 | WIKT | ≤ 0.2
46 | HELV | ≤ 0.2
47 | KSVW | ≤ 0.2
48 | RSDN | ≤ 0.2
49 | TNLR | ≤ 0.2
50 | AIQT | ≤ 0.2

Row | Variant | one-hybrid fitness for binding NBS DNA
51 | QCFL | ≤ 0.2
52 | NRQW | ≤ 0.2
53 | MYVI | ≤ 0.2
54 | PVWF | ≤ 0.2
55 | GFGG | ≤ 0.2
56 | MRHK | ≤ 0.2
57 | PANM | ≤ 0.2
58 | FAFI | ≤ 0.2
59 | WLYG | ≤ 0.2
60 | RCSE | ≤ 0.2
61 | NRRI | ≤ 0.2
62 | CMQS | ≤ 0.2
63 | PMIP | ≤ 0.2
64 | DTGT | ≤ 0.2
65 | ASHS | ≤ 0.2
66 | VWAD | ≤ 0.2
67 | SHHE | ≤ 0.2
68 | LDWR | ≤ 0.2
69 | GCPM | ≤ 0.2
70 | KTFF | ≤ 0.2
71 | QYHY | ≤ 0.2
72 | RNIW | ≤ 0.2
73 | GTFW | ≤ 0.2
74 | YPNC | ≤ 0.2
75 | FTYI | ≤ 0.2

Row | Variant | one-hybrid fitness for binding NBS DNA
76 | QIPD | ≤ 0.2
77 | EKAN | ≤ 0.2
78 | KMVG | ≤ 0.2
79 | GQRS | ≤ 0.2
80 | DGVT | ≤ 0.2
81 | IGDT | ≤ 0.2
82 | QHCA | ≤ 0.2
83 | TNSF | ≤ 0.2
84 | PIND | ≤ 0.2
85 | QFMV | ≤ 0.2
86 | DSGW | ≤ 0.2
87 | TPCM | ≤ 0.2
88 | RTPQ | ≤ 0.2
89 | PVCS | ≤ 0.2
90 | EGCT | ≤ 0.2
91 | HTFF | ≤ 0.2
92 | QAPV | ≤ 0.2
93 | HGSC | ≤ 0.2
94 | EPRC | ≤ 0.2
95 | TSYE | ≤ 0.2
96 | ECTG | ≤ 0.2
97 | IYTR | ≤ 0.2
98 | RVLV | ≤ 0.2
99 | RKPY | ≤ 0.2
100 | PRGM | ≤ 0.2

Row | Variant | one-hybrid fitness for binding NBS DNA
101 | ASEC | ≤ 0.2
102 | EETR | ≤ 0.2
103 | YTGK | ≤ 0.2
104 | SVDC | ≤ 0.2
105 | GTGA | ≤ 0.2
106 | VWDV | ≤ 0.2
107 | RVKM | ≤ 0.2
108 | ADCC | ≤ 0.2
109 | RMFA | ≤ 0.2
110 | NNMC | ≤ 0.2
111 | LIRS | ≤ 0.2
112 | SKCG | ≤ 0.2
113 | VACG | ≤ 0.2
114 | TKVQ | ≤ 0.2
115 | YRFA | ≤ 0.2
116 | LYFT | ≤ 0.2
117 | VHHE | ≤ 0.2
118 | HGAC | ≤ 0.2
119 | WSWS | ≤ 0.2
120 | FLPK | ≤ 0.2
121 | AWMV | ≤ 0.2
122 | HCAR | ≤ 0.2
123 | TEPW | ≤ 0.2
124 | RDQL | ≤ 0.2
125 | LMPK | ≤ 0.2

Row | Variant | one-hybrid fitness for binding NBS DNA
126 | HGRL | ≤ 0.2
127 | LGTF | ≤ 0.2
128 | RQSR | 0.474
129 | CTPT | ≤ 0.2
130 | HAWR | ≤ 0.2
131 | HFFG | ≤ 0.2
132 | SAKL | ≤ 0.2
133 | PVQV | ≤ 0.2
134 | TVLV | ≤ 0.2
135 | MFVW | ≤ 0.2
136 | NVNC | ≤ 0.2
137 | ETIG | ≤ 0.2
138 | AMSE | ≤ 0.2
139 | TPYV | ≤ 0.2
140 | NPLC | ≤ 0.2
141 | MACL | ≤ 0.2
142 | HPRT | ≤ 0.2
143 | IYGS | ≤ 0.2
144 | NKSV | ≤ 0.2
145 | QRVW | ≤ 0.2
146 | SMTL | ≤ 0.2
147 | FIKS | ≤ 0.2
148 | DIMG | ≤ 0.2
149 | RIWM | ≤ 0.2
150 | ARRN | ≤ 0.2

Row | Variant | one-hybrid fitness for binding NBS DNA
151 | AERY | ≤ 0.2
152 | QTCC | ≤ 0.2
153 | AFAE | ≤ 0.2
154 | PYSW | ≤ 0.2
155 | AFQF | ≤ 0.2
156 | CTPK | ≤ 0.2
157 | VVHM | ≤ 0.2
158 | AAIF | ≤ 0.2
159 | TYKM | ≤ 0.2
160 | YASG | ≤ 0.2
161 | DPDV | ≤ 0.2
162 | HWKR | ≤ 0.2
163 | APSW | ≤ 0.2
164 | KQPV | ≤ 0.2
165 | LSHK | ≤ 0.2
166 | NGAE | ≤ 0.2
167 | LPHL | ≤ 0.2
168 | YAEV | ≤ 0.2
169 | MAIS | ≤ 0.2
170 | HETS | ≤ 0.2
171 | NAGT | ≤ 0.2
172 | VVMS | ≤ 0.2
173 | NTNG | ≤ 0.2
174 | SEAG | ≤ 0.2
175 | TNLA | ≤ 0.2

Row | Variant | one-hybrid fitness for binding NBS DNA
176 | KMVQ | ≤ 0.2
177 | TAHI | ≤ 0.2
178 | VIGY | ≤ 0.2
179 | TKKY | ≤ 0.2
180 | PSDN | ≤ 0.2
181 | SWNR | ≤ 0.2
182 | KNGV | ≤ 0.2
183 | QPEG | ≤ 0.2
184 | AKYM | ≤ 0.2
185 | AVHI | ≤ 0.2
186 | GKRS | ≤ 0.2
187 | YQSC | ≤ 0.2
188 | TVTE | ≤ 0.2
189 | RVDV | ≤ 0.2
190 | ALLF | ≤ 0.2
191 | WNYS | ≤ 0.2
192 | IPMC | ≤ 0.2
193 | LSCA | ≤ 0.2
194 | WSMT | ≤ 0.2
195 | RMDE | ≤ 0.2
